# Source: ChEMBL document CHEMBL4888484, “Replenishing the malaria drug discovery pipeline: Screening and hit evaluation of the MMV Hit Generation Library 1 (HGL1) against asexual blood stage Plasmodium falciparum ,using a nano luciferase reporter read-out” (2022)
# Screen size: about 150,000 compounds; about 540 (0.36%) showed an effect of 50% or more. The list shows a part of the results.
# Tested on: Plasmodium falciparum
# Assay: Primary screen in NF54 nanoGlo assay, in single point, at 2uM, 72h; a lower Z score goes with more inhibition
# Type: functional, Erythrocyte
# Details: timepoint 72 hour
SMILES,% Inhibition,Z score
N#C[C@@H](C(=O)Nc1cccnc1)c1nc2cc(Cl)ccc2s1,5%,-0.72
O=C(N[C@H]1CC2(CCCCC2)Oc2ccccc21)N1CCS(=O)(=O)CC1,-1%,0.09
CN(Cc1cc(C2CC2)on1)Cc1ccc([C@@H]2CCCO2)s1,-6%,1.13
CC1CCN(C[C@@H]2OC[C@H](NC(=O)c3cccs3)[C@H]2O)CC1,5%,-0.6
COc1ccccc1C(=O)Nc1c(C(=O)N2CCC(C)CC2)sc2nc(C)c(Cl)c(C)c12,-1%,0.07
O=C(C(C1CC1)C1CC1)N1CCn2ncnc2C1,3%,-0.57
CCC(C)CC(C)NC(=O)N1CCOCC1CC(C)O (stereo not drawn),-8%,1.05
FC(F)(F)CN1CC[C@H](NC2Cc3ccccc3C2)C1,-3%,0.44
CS(=O)(=O)c1ccc(CN2CC(c3cccnc3)C2)cc1,-1%,0.2
COCC1(Cn2cnc3ccc(OC)cc3c2=O)CCC1,-5%,0.69
O=C(c1cc2sccc2[nH]1)N1CCc2nc[nH]c2[C@H]1c1ccncc1,-2%,0.39
O=C(COc1ccccc1F)c1ccc2c(c1)N(Cc1ccc(C(=O)NCCc3ccccn3)o1)C(=O)CO2,-20%,1.86
CCn1ncc2c1CCCC2NC(C)C(=O)Nc1nc(C)c(C)s1 (stereo not drawn),-2%,0.14
NC1CCC(C(=O)N(Cc2cccs2)Cc2cccs2)C1 (stereo not drawn),-6%,0.6
CN(C)c1nc(N2CCN(C3CCCCC3)CC2)nc2c1CN(S(=O)(=O)c1cccc(Cl)c1)CC2,-5%,1.01
O=C(CN1CCCCCC1)Nc1nc(-c2ccccc2)cc(-c2ccc(Cl)cc2)n1,-9%,1.44
Cc1ccc(CC(=O)Nc2ccc(OC3CCCCC3O)cc2)o1 (stereo not drawn),-5%,0.62
Cc1ccc(-c2cc(O)c3c(c2)CNCCO3)s1,-5%,0.7
Cc1noc(CN2CCCC[C@H]2C(=O)Nc2cccc(-c3nnc(C)s3)c2)n1,-4%,0.56
CC1CN(C(=O)C2=NN(C)C(=O)CC2)C(C)CO1 (stereo not drawn),-8%,0.77
Cc1ccc(N2CCCN(Cc3ccc(OC(F)(F)F)cc3)C2=O)c(NC(=O)c2ccc(F)cc2F)c1,2%,-0.23
COCCCNC(=O)CN(C)c1ccccc1OC,-9%,1.21
CNS(=O)(=O)C1CCN(C[C@@H](O)c2cc3ccccc3o2)CC1,-15%,1.74
Cc1cc(=O)cc(C(=O)N[C@@H](C)c2ncccc2C)[nH]1,11%,-1.23
O=C(C[C@H]1C(=O)Nc2ccccc2N1C(=O)COc1ccc(Cl)cc1)Nc1ccccc1,8%,-1.17
Cc1cc2n(n1)CCCN(C(=O)Nc1ccc3nc(C)sc3c1)C2,-4%,0.72
N#Cc1ccccc1OCC(=O)OCC(N)=O,11%,-1.53

SMILES,% Inhibition,Z score
CCc1ccccc1NC(=O)c1cn2c3c(cc(Br)cc3c1=O)CC2,-3%,0.35
CNc1cc(-c2ccc(C(=O)N[C@@H](C)CCn3cccn3)cc2)nc(N)n1,-7%,1.05
CCCN1CCC(C(=O)N(Cc2ccco2)C[C@H]2CCCO2)CC1,-2%,0.36
COc1ccc(C(=O)N2CCC(F)(C(=O)N3CCCC3)CC2)cc1F,-10%,1.34
CS(=O)(=O)N1CCC(C(=O)Nc2ccccc2-c2ccc(=O)[nH]n2)CC1,-12%,1.52
CCCOC[C@H]1CCN(C(=O)Cn2ccc3ccccc3c2=O)C1,-5%,0.46
COCCNC(=O)NCC1(c2ccsc2)CCCC1,-13%,2.45
CCCc1nn(-c2ccccc2)c(CC)c1C(=O)NCc1ccncc1,0%,0.04
C=C(C)CS(=O)(=O)Nc1ccc(F)cc1,-10%,1.13
CCn1cnnc1CN(C)C(=O)c1ccc(-c2cnn(C)c2C(=O)OC)cc1,-4%,0.74
C[C@@H](O)CNS(=O)(=O)c1cccc(C#N)c1Cl,-3%,0.5
Cc1ncc(NC(=O)Cc2ccccc2)n1-c1nc(-c2cccs2)cs1,-38%,4.42
CC(C(=O)NCc1cccs1)N1CCOC(Cn2cccn2)C1 (stereo not drawn),-2%,0.23
Cc1cccc(C)c1Nc1c(-c2cccs2)nc2cnccn12,-15%,1.51
COC(=O)c1n[nH]cc1-c1cc(-c2ccc(C)cc2C)nc(N)c1C#N,0%,0.06
Cc1ccccc1C1NC(=O)N(CC(O)Cn2cccn2)C1=O (stereo not drawn),-14%,2.54
O=S1(=O)CC[C@H](CCN(CCO)Cc2ccc(F)cc2)C1,-12%,1.42
O=C(c1cnccn1)N1C[C@H]2CC[C@@H](C1)N(C(=O)CC1CCCCC1)C2,1%,-0.11
Cc1ccc(C)c(S(=O)(=O)n2nc(C)c(S(=O)(=O)N3CCCCCC3)c2C)c1,-14%,1.29
Cc1c[nH]c(CN(C)C(=O)c2cccc(NCc3ccccn3)c2C)n1,-4%,0.77
COc1cn(CC(=O)Nc2ccc3c(c2)OCCO3)c(CN2CCC(C)CC2)cc1=O,-2%,0.4
Cc1n[nH]c(CN(C)CCN2CCCC[C@@H]2C)n1,-2%,0.31
CC1CN(c2nnc(C3CC3)n2CC2CCOC2)CC(C2CC2)O1 (stereo not drawn),-4%,0.7
OCCc1cc(CC2(NC3CCCCC3)COC2)no1,-5%,0.83
Cc1cc(C)n(-c2ccc(-n3cnnc3)cc2)n1,-4%,0.69
CC[C@H]1CCCCN1C(=O)C1CCN(C(=O)c2cccs2)CC1,-16%,1.92
O=C(CN(CCN1CCOCC1)C(=O)C1CCC1)N1CCN(c2ccc(-c3ccc(Cl)cc3Cl)nn2)CC1,-20%,1.76
